Data reported in the supplement of paper PMC8728848.
This is one part of the list.

Assays:
Experiment in all cases: glycan array binding signal (z-score within array); higher = stronger binding
Settings in all cases: glycan notation: IUPAC condensed, linker removed
[1] = target: GlcNAc(b1-3)Gal(b1-4)GlcNAc(b1-3)Gal(b1-4)GlcNAc(b1-3)Gal(b1-4)GlcNAc(b1-3)Gal(b1-4)GlcNAc(b1-2)[GlcNAc(b1-3)Gal(b1-4)GlcNAc(b1-3)Gal(b1-4)GlcNAc(b1-3)Gal(b1-4)GlcNAc(b1-3)Gal(b1-4)GlcNAc(b1-6)]Man(a1-6)[GlcNAc(b1-3)Gal(b1-4)GlcNAc(b1-3)Gal(b1-4)GlcNAc(b1-3)Gal(b1-4)GlcNAc(b1-3)Gal(b1-4)GlcNAc(b1-2)Man(a1-3)]Man(b1-4)GlcNAc(b1-4)[Fuc(a1-6)]GlcNAc
Method in brief: (§1)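 From the Consortium for Functional Glycomics database, 3228 arrays were curated, keeping only those whose protein sequence was available. Binding is given as a within-array Z-score averaged across arrays sharing a protein sequence and across linkers. Negative Z-scores can be read as non-binding.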

[2] = target: GlcNAc(b1-3)Gal(b1-4)GlcNAc(b1-3)Gal(b1-4)GlcNAc(b1-3)GalNAc
Method in brief: as §1

[3] = target: GlcNAc(b1-3)Gal(b1-4)GlcNAc(b1-3)GalNAc
Method in brief: as §1

[4] = target: GlcNAc(b1-3)Gal(b1-4)GlcNAc(b1-3)[GlcNAc(b1-3)Gal(b1-4)GlcNAc(b1-3)]GalNAc
Method in brief: as §1

[5] = target: GlcNAc(b1-3)Gal(b1-4)GlcNAc(b1-6)[Gal(b1-3)]GalNAc
Method in brief: as §1

[6] = target: GlcNAc(b1-3)Gal(b1-4)GlcNAc(b1-6)[GlcNAc(b1-3)Gal(b1-3)]GalNAc
Method in brief: as §1

[7] = target: GlcNAc(b1-3)Gal(b1-4)GlcNAc(b1-6)[GlcNAc(b1-3)]Gal(b1-4)GlcNAc
Method in brief: as §1

[8] = target: GlcNAc(b1-3)GalNAc
Method in brief: as §1

[9] = target: GlcNAc(b1-3)Man
Method in brief: as §1

[10] = target: GlcNAc(b1-3)[GlcNAc(b1-4)][GlcNAc(b1-6)]GlcNAc
Method in brief: as §1

[11] = target: GlcNAc(b1-3)[GlcNAc(b1-6)]Gal(b1-4)GlcNAc
Method in brief: as §1

[12] = target: GlcNAc(b1-3)[GlcNAc(b1-6)]GalNAc
Method in brief: as §1

[13] = target: GlcNAc(b1-4)Gal(b1-4)GlcNAc
Method in brief: as §1

[14] = target: GlcNAc(b1-4)GlcNAc
Method in brief: as §1

[15] = target: GlcNAc(b1-4)GlcNAc(b1-4)GlcNAc
Method in brief: as §1

[16] = target: GlcNAc(b1-4)GlcNAc(b1-4)GlcNAc(b1-4)GlcNAc(b1-4)GlcNAc
Method in brief: as §1

[17] = target: GlcNAc(b1-4)GlcNAc(b1-4)GlcNAc(b1-4)GlcNAc(b1-4)GlcNAc(b1-4)GlcNAc
Method in brief: as §1

[18] = target: GlcNAc(b1-4)[GlcNAc(b1-6)]GalNAc
Method in brief: as §1

[19] = target: GlcNAc(b1-6)Gal(b1-4)GlcNAc
Method in brief: as §1

[20] = target: GlcNAc(b1-6)GalNAc
Method in brief: as §1

[21] = target: GlcNAc6S(b1-3)Gal(b1-4)GlcNAc
Method in brief: as §1

[22] = target: Kdn(a2-3)Gal(b1-3)GalNAc
Method in brief: as §1

[23] = target: Kdn(a2-3)Gal(b1-3)GlcNAc
Method in brief: as §1

[24] = target: Kdn(a2-3)Gal(b1-4)Glc
Method in brief: as §1

[25] = target: Kdn(a2-3)Gal(b1-4)GlcNAc
Method in brief: as §1

[26] = target: Kdn(a2-3)Gal(b1-4)[Fuc(a1-3)]GlcNAc
Method in brief: as §1

[27] = target: Kdn(a2-6)Gal(b1-4)GlcNAc
Method in brief: as §1

[28] = target: Man(a1-2)Man(a1-2)Man(a1-3)Man
Method in brief: as §1

[29] = target: Man(a1-2)Man(a1-2)Man(a1-6)[Man(a1-3)]Man
Method in brief: as §1

[30] = target: Man(a1-2)Man(a1-3)Man
Method in brief: as §1

[31] = target: Man(a1-2)Man(a1-3)[Man(a1-2)Man(a1-6)]Man
Method in brief: as §1

[32] = target: Man(a1-2)Man(a1-3)[Man(a1-2)Man(a1-6)]Man(a1-6)[Man(a1-2)Man(a1-2)Man(a1-3)]Man
Method in brief: as §1

[33] = target: Man(a1-2)Man(a1-3)[Man(a1-2)Man(a1-6)]Man(a1-6)[Man(a1-2)Man(a1-2)Man(a1-3)]Man(b1-4)GlcNAc(b1-4)GlcNAc
Method in brief: as §1

[34] = target: Man(a1-2)Man(a1-3)[Man(a1-6)]Man(a1-6)[Man(a1-2)Man(a1-3)]Man(b1-4)GlcNAc(b1-4)GlcNAc
Method in brief: as §1

[35] = target: Man(a1-2)Man(a1-6)[Man(a1-3)]Man(a1-6)[Man(a1-2)Man(a1-2)Man(a1-3)]Man
Method in brief: as §1

[36] = target: Man(a1-2)Man(a1-6)[Man(a1-3)]Man(a1-6)[Man(a1-2)Man(a1-2)Man(a1-3)]Man(b1-4)GlcNAc(b1-4)GlcNAc
Method in brief: as §1

[37] = target: Man(a1-3)[Man(a1-6)]Man
Method in brief: as §1

B1: Epa23 (Candida glabrata) (protein)
chain: MGSSHHHHHHSSGLVPRGSHMIPNPFEGTINNFPSGCSPNHGLYNRGLTMELYNYSYIHPQSIQSYFNTSTLKKMEKGQCWDPSYLDVNYPRTGYKTHNRFAKVNGIDGILDFEFNPTRSCVPSKGQLPQNYNYPLQFTLSNFTMLLYGYFKPKVTAKHTFTIFADDLLFLNFGAGNAFDCCQQQDTIDDFGNYQAYALWGSDTQQNTLTVNLDANIYYPIRMFYNNRDFKGALNMYFTTDESNTKINDFSGYLFNIPDSSEGCPAHISYETECGNVSG
glycan array binding signal (z-score) [1]: -0.111 | glycan array binding signal (z-score) [2]: -0.211 | glycan array binding signal (z-score) [3]: -0.215 | glycan array binding signal (z-score) [4]: -0.21 | glycan array binding signal (z-score) [5]: -0.112 | glycan array binding signal (z-score) [6]: -0.239 | glycan array binding signal (z-score) [7]: -0.301 | glycan array binding signal (z-score) [8]: -0.243 | glycan array binding signal (z-score) [9]: -0.279 | glycan array binding signal (z-score) [10]: -0.227 | glycan array binding signal (z-score) [11]: -0.251 | glycan array binding signal (z-score) [12]: -0.183 | glycan array binding signal (z-score) [13]: -0.188 | glycan array binding signal (z-score) [14]: -0.311 | glycan array binding signal (z-score) [15]: -0.263 | glycan array binding signal (z-score) [16]: -0.164 | glycan array binding signal (z-score) [17]: -0.276 | glycan array binding signal (z-score) [18]: -0.124 | glycan array binding signal (z-score) [19]: 0.274 | glycan array binding signal (z-score) [20]: -0.232 | glycan array binding signal (z-score) [21]: 0.938 | glycan array binding signal (z-score) [22]: -0.317 | glycan array binding signal (z-score) [23]: -0.154 | glycan array binding signal (z-score) [24]: -0.263 | glycan array binding signal (z-score) [25]: -0.242 | glycan array binding signal (z-score) [26]: -0.191 | glycan array binding signal (z-score) [27]: -0.246 | glycan array binding signal (z-score) [28]: -0.134 | glycan array binding signal (z-score) [29]: -0.204 | glycan array binding signal (z-score) [30]: -0.232 | glycan array binding signal (z-score) [31]: -0.268 | glycan array binding signal (z-score) [32]: -0.233 | glycan array binding signal (z-score) [33]: -0.196 | glycan array binding signal (z-score) [34]: -0.258 | glycan array binding signal (z-score) [35]: -0.27 | glycan array binding signal (z-score) [36]: -0.219 | glycan array binding signal (z-score) [37]: -0.123
